We go through 30 compounds from PubChem BioAssay AID1745853 (National Center for Advancing Translational Sciences (NCATS), 2022).

Common to all, as to experiment: Primary Screen for Target Class Profiling of Small Molecule Inhibitors of Methyltransferases
Assay [1] deals with Glycine N-methyltransferase (Homo sapiens) (UniProt Q14749). Conditions: purified enzyme, MTase-Glo SAH luminescence; measured here: GNMT inhibition; at 40 µM; stronger effect = lower value. In a few lines:
(§1)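 Each enzyme was reacted with SAM and its substrate, with compounds tested once at 40 uM; SAH formed was read by MTase-Glo luminescence.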

Assay [2] addresses Guanidinoacetate N-methyltransferase (Homo sapiens) (UniProt Q14353). Particulars: purified enzyme, MTase-Glo SAH luminescence; measured here: GAMT inhibition; at 40 µM; stronger effect = lower value. In a few lines: as §1
The target of assay [3] is Histamine N-methyltransferase (Homo sapiens) (UniProt P50135). Particulars: purified enzyme, MTase-Glo SAH luminescence; measured here: HNMT inhibition; at 40 µM; stronger effect = lower value. In a few lines:
as §1

Assay [4] concerns the target Nicotinamide N-methyltransferase (Homo sapiens) (UniProt P40261). Particulars: purified enzyme, MTase-Glo SAH luminescence; measured here: NNMT inhibition; at 40 µM; stronger effect = lower value. In a few lines: as §1
The target in assay [5] is Phenylethanolamine N-methyltransferase (Homo sapiens) (UniProt P11086). Conditions: purified enzyme, MTase-Glo SAH luminescence; measured here: PNMT inhibition; at 40 µM; stronger effect = lower value. In a few lines: as §1

Structures are written as SMILES. Several values for one entry are separate records, joined by “and”; a condition that tells them apart may be missing. Equal values may be shown once. The list shows a part of the results. Shown are side measurements of this screen, not its main read-out; they come without a call.
% is scaled to controls: 0 for no effect and ±100 for the full control effect.

As to `CC(C)CCNC(=O)C1(C)Cn2nc(C(=O)NCCc3cccs3)cc2C(=O)N1C` (stereo not drawn), the activity change, negative = inhibition was 0.913% in assay [1]; 0% in assay [2]; 3.59% in assay [3]; 2.56% in assay [4]; 0.118% in assay [5].

With `CCCNC(=O)C1CCc2ncc(-c3ccc(OC)cc3)n2C1` (stereo not drawn), the activity change, negative = inhibition in assay [1] is -1.27%; in assay [2], -2.03%; in assay [3] it was -6.15%; in assay [4] it was -1.66%; in assay [5], 1.12%.

As to `COc1ccc(CN2CCc3nc(N4CCN(C)CC4)[nH]c(=O)c3CC2)c(OC)c1OC`, the activity change, negative = inhibition in assay [1] is -4.45%; in assay [2] it was -4.51%; in assay [3] it was -2.47%; in assay [4] it was -6.03%; in assay [5], 12%.

Take `Cc1ccc(CNC(=O)CCc2nnc3n(Cc4ccc(Cl)cc4)c(=O)c4ccccc4n23)cc1`: the activity change, negative = inhibition was -3.87% in assay [1]; 1.41% in assay [2]; 7.33% in assay [3]; 9.76% in assay [4]; -0.189% in assay [5].

Regarding `CCOCCCNC(=O)N1Cc2c(sc3c2CCCC3)-n2cccc2C1c1cccc(F)c1` (stereo not drawn), the activity change, negative = inhibition in assay [1] is -3.1%; in assay [2], 4.96%; in assay [3], -0.002%; in assay [4], -11.8%; in assay [5], 2.41%.

In the case of `Cc1ccc(C)c(N2C(=O)c3cc4sccc4n3CC2(C)C(=O)NC2CCCCC2C)c1` (stereo not drawn), the activity change, negative = inhibition in assay [1] was 3.09%; in assay [2], 0%; in assay [3], 4.15%; in assay [4], 2.71%; in assay [5], 0.765%.

On to `CCOc1ccc2nc(SCCN3CCOCC3)[nH]c2c1`, for which the activity change, negative = inhibition in assay [1] is -2.52%; in assay [2], -7.17%; in assay [3], -5.32%; in assay [4], -17.3%; in assay [5], -5.03%.

For the compound `Cc1ccccc1CSc1nnc2n(C)c(=O)c3ccc(C(=O)NC4CCCC4)cc3n12`, the activity change, negative = inhibition in assay [1] is -3.01%; in assay [2], 0%; in assay [3], 5.69%; in assay [4] it was 4.67%; in assay [5], 1.88%.

Turning to `NC12CC3CC(CC(C3)C1)C2`, the activity change, negative = inhibition was 6.57% in assay [1]; -4.45% in assay [2]; 9.58% in assay [3]; -12.6% in assay [4]; -3.9% in assay [5].

As to `COc1ccc(-c2nnc3n(Cc4ccccc4Cl)c(=O)c4ccccc4n23)c(OC)c1`, the activity change, negative = inhibition in assay [1] is -9.6%; in assay [2], 4.35%; in assay [3], -3.34%; in assay [4] it was -3.71%; in assay [5], -0.708%.

With `COCCN1C(=O)CS(=O)C12CCN(S(=O)(=O)c1ccccc1)CC2` (stereo not drawn), the activity change, negative = inhibition was -0.323% in assay [1]; 1.56% in assay [2]; 1.91% in assay [3]; 1% in assay [4]; 0.722% in assay [5].

Take `COc1cccc(CCC(=O)N2CCC3(CC2)N=C(c2ccccc2)NO3)c1`: the activity change, negative = inhibition was -8.77% in assay [1]; -13.4% in assay [2]; -6.23% in assay [3]; -21.7% in assay [4]; -13.9% in assay [5].

For `Cc1ccc(C)c(Cn2nc3n(C(C)C)c(=O)c4ccc(C(=O)NC(C)C)cc4n3c2=O)c1`, the activity change, negative = inhibition in assay [1] stood at 5.2%; in assay [2], 1.13%; in assay [3], 9.42%; in assay [4], 3.49%; in assay [5] it was 8.15%.

As to `Cc1ccc(N2C(=O)c3cc4occc4n3CC2(C)C(=O)NC2CCCC(C)C2C)cc1C` (stereo not drawn), the activity change, negative = inhibition in assay [1] is -12%; in assay [2] it was -8.34%; in assay [3] it was -0.212%; in assay [4], -11.8%; in assay [5], -10.3%.

Consider `Cc1cccc(-c2nnn3c2nc(N2CCOCC2)c2cc(Cl)ccc23)c1`, for which the activity change, negative = inhibition in assay [1] was -2.2%; in assay [2] it was 0.11%; in assay [3], 6.77%; in assay [4] it was 11.4%; in assay [5], 1.55%.

As for `CCOCC(=O)Nc1nn(-c2ccc(F)cc2)c2cccc(N3CCOC3=O)c12`, the activity change, negative = inhibition was 1.41% in assay [1]; 0.1% in assay [2]; 2.14% in assay [3]; -0.685% in assay [4]; -2.25% in assay [5].

Consider `COc1cc(NS(=O)(=O)c2ccc(N)cc2)nc(C)n1`, for which the activity change, negative = inhibition was 10% in assay [1]; 7.14% in assay [2]; 8.64% in assay [3]; -4.16% in assay [4]; 2.76% in assay [5].

With `CCCNC(=O)O[C@@H]1CC[C@]2(C)[C@H](CC[C@@H](O)[C@H]2CC(=O)N2CCCC2)[C@]1(C)CO`, the activity change, negative = inhibition in assay [1] was -4.4%; in assay [2] it was -5.89%; in assay [3] it was -2.98%; in assay [4] it was -12%; in assay [5], -21.3%.

Turning to `Cc1cnc(CCNC(=O)c2cccs2)n1C1CCC1`, the activity change, negative = inhibition is -6.84% in assay [1]; -6.74% in assay [2]; -55.7% in assay [3]; -11.6% in assay [4]; 7.64% in assay [5].

As for `CN1C(=O)c2cc(C(=O)NCc3ccc(Cl)cc3)nn2CC1(C)C(=O)NC1CCCCC1` (stereo not drawn), the activity change, negative = inhibition in assay [1] was -1%; in assay [2], 3.18%; in assay [3] it was 8.95%; in assay [4], 6.78%; in assay [5] it was 3.42%.

Take `CCS(=O)(=O)Nc1ccc(C)n(CC(=O)NC2CCCCC2)c1=O`: the activity change, negative = inhibition is -2.73% in assay [1]; -2.7% in assay [2]; -2.39% in assay [3]; -6.32% in assay [4]; 9.99% in assay [5].

In the case of `CO[C@H]1O[C@@H]2O[C@@]3(C)CC[C@H]4[C@H](C)CC[C@@H]([C@H]1C)[C@@]24OO3`, the activity change, negative = inhibition in assay [2] is 4.04% and 3.27%; in assay [4], -9.2% and -6.38%; in assay [5], 2.96% and 6.84%.

On to `O=c1[nH]c2ccc(S(=O)(=O)NCCC3=CCCCC3)cc2[nH]1`, for which the activity change, negative = inhibition in assay [1] is 12.7%; in assay [2], 0.848%; in assay [3], 11.1%; in assay [4] it was 4.11%; in assay [5], -8.54%.

Consider `COc1ccc(N2C(=O)CSc3c(c4ccccc4n3C)C2C(=O)NCCCOC(C)C)c(OC)c1` (stereo not drawn), for which the activity change, negative = inhibition in assay [1] was 4.81%; in assay [2], 0%; in assay [3], -0.146%; in assay [4] it was 2.81%; in assay [5] it was 2.94%.

`Cc1cccc(CNC(=O)CNC(=O)C2(C)Cn3c(cc4ccccc43)C(=O)N2C)c1` (stereo not drawn): the activity change, negative = inhibition was -0.306% in assay [1]; 0% in assay [2]; 0.545% in assay [3]; -2.67% in assay [4]; 1.46% in assay [5].

As to `O=C(NCCN1CCC(n2c(=O)[nH]c3ccccc32)CC1)c1cc2cc(F)ccc2[nH]1`, the activity change, negative = inhibition was -30.4% in assay [1]; 5.46% in assay [2]; 1.6% in assay [3]; -23.6% in assay [4]; -6.51% in assay [5].

For the compound `O=C1CCN(Cc2ccncc2)CCCC(C(=O)NCCCN2CCCC2=O)CCN1` (stereo not drawn), the activity change, negative = inhibition is -2.89% in assay [1]; -3.1% in assay [2]; -1.83% in assay [3]; -0.266% in assay [4]; -5.29% in assay [5].

Regarding `COc1cccc(S(=O)(=O)N2CCCC(c3nnnn3C)C2)c1` (stereo not drawn), the activity change, negative = inhibition in assay [1] turned out to be 3.12%; in assay [2], 1.86%; in assay [3] it was 14.8%; in assay [4] it was 6.99%; in assay [5] it was 11%.

For the compound `CCOc1ccc(CCNC(=O)CNC(=O)C2(C)Cn3c(cc4ccccc43)C(=O)N2C)cc1` (stereo not drawn), the activity change, negative = inhibition in assay [1] was 4.55%; in assay [2], 0%; in assay [3], 7.01%; in assay [4], 8.08%; in assay [5], 2.47%.

For the compound `Cc1nn(C)cc1C(=O)N1C[C@@H](CO)[C@H](c2ccncc2)C1`, the activity change, negative = inhibition was -5.06% in assay [1]; -4.66% in assay [2]; -2.56% in assay [3]; -10.6% in assay [4]; 5.46% in assay [5].
